The target of the assay is T1, recombinant ARMS2 (age-related maculopathy susceptibility 2) (human, UniProt P0C7Q2 1-107).
T1 sequence (looked up): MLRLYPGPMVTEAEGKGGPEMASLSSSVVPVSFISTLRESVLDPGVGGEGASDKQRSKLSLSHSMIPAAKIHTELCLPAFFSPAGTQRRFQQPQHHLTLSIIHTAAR
Nature of the assay: cell-based or functional assay.

B1: properdin (natural protein, human, UniProt P27918 28-469, looked up)
chain: DPVLCFTQYEESSGKCKGLLGGGVSVEDCCLNTAFAYQKRSGGLCQPCRSPRWSLWSTWAPCSVTCSEGSQLRYRRCVGWNGQCSGKVAPGTLEWQLQACEDQQCCPEMGGWSGWGPWEPCSVTCSKGTRTRRRACNHPAPKCGGHCPGQAQESEACDTQQVCPTHGAWATWGPWTPCSASCHGGPHEPKETRSRKCSAPEPSQKPPGKPCPGLAYEQRRCTGLPPCPVAGGWGPWGPVSPCPVTCGLGQTMEQRTCNHPVPQHGGPFCAGDATRTHICNTAVPCPVDGEWDSWGEWSPCIRRNMKSISCQEIPGQQSRGRTCRGRKFDGHRCAGQQQDIRHCYSIQHCPLKGSWSEWSTWGLCMPPCGPNPTRARQRLCTPLLPKYPPTVSMVEGQGEKNVTFWGRPLPRCEELQGQKLVVEEKRPCLHVPACKDPEEEEL
As for B1, the “C3b deposition on ARMS2 (500 nM) coated CHO-K1 cells in 20% NHS over 45 min, flow cytometry, compared to cells coated with HSA” value was 3 fold.

Values taken from publication PMC5234120, “Age-related macular degeneration associated polymorphism rs10490924 in ARMS2 results in deficiency of a complement activator” (Journal of Neuroinflammation, 2017).
